Measured values published in publication PMC13083723 (Patterns, 2026).
The campaign covered roughly 5,400 compounds. About 190 (3.5%) showed an effect of 50% or more. The list shows a part of the results.

tested on: Vero-E6; assay: primary screen, phospholipidosis by LipidTOX staining; higher = more effect of the substance; settings: 10 µM
Method: To measure drug-induced PLD in Vero-E6 cells, we used the HCS LipidTOX Red Phospholipidosis Detection Reagent (Invitrogen, #H34351), which is non-toxic to cell growth and remains well retained after aldehyde fixation. In this setup, compounds (at 10 μM concentration) and controls (amiodarone: 10 μM concentration; DMSO: 0.1 v/v %) were added to clear-bottom, 384-well plates (PhenoPlate 384-well, black, optically clear flat bottom, tissue-culture treated, Revvity #6057302) using the Echo Liquid Handler (Labcyte).

| Molecule | result_ITMP [%] |
| --- | --- |
| O=S(=O)(O)NC1CCCCC1 | -2.13 |
| CCCCCCCCNC(=O)/C(C#N)=C/c1cn(CCCN(C)C)c2ccccc12 | 10.9 |
| Ac-PHSCN-NH2 | -1.65 |
| OC[C@H]1O[C@H](O)[C@H](O)[C@@H](O)[C@@H]1O | -3.41 |
| CC(C)[C@@H](CN1CC[C@@](C)(c2cccc(O)c2)[C@@H](C)C1)NC(=O)[C@H]1Cc2ccc(O)cc2CN1 | 5.03 |
| Cn1c(NC[C@@H](N)Cc2ccccc2)nc(-c2ccncc2)c(-c2ccc3ccccc3c2)c1=O | 27.9 |
| O=c1oc2ccccc2c(O)c1Cc1c(O)c2ccccc2oc1=O | -5.4 |
| CS(=O)(=O)N1CCc2c(-c3cnc(N)nc3)nc(N3CCOCC3)nc21 | 4.22 |
| Cn1ccc2cc(NC(=O)Nc3cccnc3)ccc21 | -0.64 |
| CN1C(CSCC(F)(F)F)Nc2cc(Cl)c(S(N)(=O)=O)cc2S1(=O)=O (stereo not drawn) | 0.28 |
| NC(=S)N/N=C/c1coc2ccccc2c1=O | -1.79 |
| CC(=O)[C@]1(O)Cc2c(O)c3c(c(O)c2[C@@H](O[C@H]2C[C@H](N)[C@H](O)[C@H](C)O2)C1)C(=O)c1ccccc1C3=O | -10.6 |
| C[C@H](Nc1cc(NS(=O)(=O)N2CCC2)nc(SCc2cccc(F)c2F)n1)[C@@H](O)CO | -1.49 |
| CN1CCN(CCCN2c3ccccc3Sc3ccc(Cl)cc32)CC1 | 38.9 |
| CCN(c1ccccc1)c1cc(NC)[n+](C)c(C)n1 | 2.05 |
| COC(=O)CCSCc1ccc(-c2onc(C)c2NC(=O)OC(C)c2ccccc2Cl)cc1 (stereo not drawn) | 1.75 |
| Nc1c(S(=O)(=O)[O-])cc(Nc2cccc3ccccc23)c2c1C(=O)c1ccccc1C2=O | -11.1 |
| c1ccc(CNc2nc(NCc3ccccc3)c3ccccc3n2)cc1 | 58.9 |
| CC(=O)OCC(=O)[C@@]1(O)CCC2C3CCC4=CC(=O)C=CC4(C)C3[C@@H](O)C[C@@]21C (stereo partly drawn) | -4.54 |
| O=C([O-])C1=C(CSc2nnnn2CS(=O)(=O)[O-])CS[C@@H]2[C@H](NC(=O)[C@H](O)c3ccccc3)C(=O)N12 | 0.51 |
| CCCOc1ccn2c(C(C)=O)cc(-c3ccccc3S(C)(=O)=O)c2c1 | -2.9 |
| CCCN(CCC)C1CCc2cccc(O)c2C1 (stereo not drawn) | 1.02 |

| Molecule | result_ITMP [%] |
| --- | --- |
| COC(=O)[C@]12CCC(C)(C)C[C@H]1[C@H]1C(=O)C=C3[C@@]4(C)C=C(C#N)C(=O)C(C)(C)[C@@H]4CC[C@@]3(C)[C@]1(C)CC2 | -10.9 |
| CCC(=O)OCN1C(=O)C=CC1=O | -2 |
| CC(/C=C1\SC(=S)N(CC(=O)O)C1=O)=C\c1ccccc1 | -0.12 |
| C[N+](C)(C)CC[N+]1(C)Cc2c(Cl)c(Cl)c(Cl)c(Cl)c2C1 | 2.19 |
| CN1CCN(c2c(F)cc3c(=O)c(C(=O)O)cn(CCF)c3c2F)CC1 | -12.5 |
| O=C(O)C(O)c1ccccc1 (stereo not drawn) | -1.64 |
| C=CCCCCCCCCC(=O)[O-] | 1.9 |
| CC(=O)OCC(CCn1cnc2cnc(N)nc21)COC(C)=O | 7.98 |
| NNc1nncc2ccccc12 | -2.34 |
| O=c1c2c[nH]c3ccccc3c-2nn1-c1ccc(Cl)cc1 | -10.3 |
| CCNC(=O)CCC(N)C(=O)O (stereo in doubt) | -4.2 |
| C=CC(=O)Nc1cccc(Oc2nc(Nc3ccc(N4CCN(C)CC4)cc3OC)ncc2Cl)c1 | -1.32 |
| O=C(/C=C/c1ccc(O)c(O)c1)OCCc1ccccc1 | -9.88 |
| N[C@@H]1c2cccnc2[C@H](OC(=O)N2CCC(n3c(=O)[nH]c4ncccc43)CC2)CC[C@H]1c1cccc(F)c1F | -1.5 |
| COc1c2occc2c(OC)c2c(=O)cc(C)oc12 | 0.72 |
| COc1ccc(CCN(C)CCCC(C#N)(c2cc(OC)c(OC)c(OC)c2)C(C)C)cc1OC (stereo not drawn) | 6.5 |
| Nc1cc(C(Cl)=C(Cl)Cl)c(S(N)(=O)=O)cc1S(N)(=O)=O | -5.15 |
| Cc1ccccc1CN1C2=NCCN2C(=O)C2=C1CCN(Cc1ccccc1)C2 | -4.39 |
| NCCNS(=O)(=O)c1ccc(Cl)c2ccncc12 | 0.33 |
| O=C(Nc1ccccc1)Nc1ccc(-c2ccc(C(=O)[C@@H]3CCC[C@H]3C(=O)O)cc2)cc1 [R4A_0000400_001 / SPE_K28861668] | -3.95 |
| CC[C@H](C)C(=O)O[C@H]1CCC=C2C=C[C@H](C)[C@H](CC[C@@H]3C[C@@H](O)CC(=O)O3)[C@H]21 | -0.91 |
| O=C(NCCN1CCC2(CC1)C(=O)NCN2c1cccc(F)c1)c1ccc2ccccc2c1 | 55.1 |

| Molecule | result_ITMP [%] |
| --- | --- |
| CC/C(=C(\c1ccc(OCCN(C)C)cc1)c1cccc(O)c1)c1ccccc1 | 77.7 |
| O=C1OCCN1/N=C/c1ccc([N+](=O)[O-])o1 | -2.92 |
| NC(=O)c1ccc([N+](=O)[O-])cc1Cl | -6.31 |
| c1ccc2c(c1)[I+]c1ccccc1-2 | -0.66 |
| CCOC(=O)[C@H](CCc1ccccc1)N[C@H]1CS[C@H](c2cccs2)CN(CC(=O)O)C1=O | -0.65 |
| Cc1cn2nc([C@@H]3CCCCN3C(=O)c3cc(Cl)ccc3NS(C)(=O)=O)cc2nc1N1CC[C@H](N)C1 | 20.6 |
| CN(C)N(C)C(=O)[C@@]1(Cc2ccccc2)CCCN(C(=O)[C@@H](Cc2c[nH]c3ccccc23)NC(=O)C(C)(C)N)C1 | -0.2 |
| COc1cc(C(=O)NCC2(N(C)C)CCCC2)cc(OC)c1OCc1ccccc1 | 25.4 |
| COc1ccc(F)c(F)c1C(=O)c1cnc(NC2CCN(S(C)(=O)=O)CC2)nc1N | 16.3 |
| CC(SC(=O)c1cccs1)C(=O)NCC(=O)O (stereo not drawn) | -5.05 |
| CC(=O)O[C@]1(C(C)=O)CCC2C3C[C@H](C)C4=CC(=O)CC[C@]4(C)C3CC[C@@]21C (stereo partly drawn) | -3.12 |
| O=[N+]([O-])c1cc([As](=O)(O)O)ccc1O | -5.26 |
| Cc1ccc([N+](=O)[O-])cc1S(=O)(=O)N(C)C | -2.23 |
| O=S(=O)(O)c1cc(O)ccc1O | -4.32 |
| Cc1c(O)c(=O)ccn1C | -10.5 |
| CN(C)CC/C=C1\c2ccccc2Sc2ccc(Cl)cc21 | 51.1 |
| COc1ccc(OC)c(C2C(C#N)=C(N)Oc3[nH]nc(-c4ccc5ccccc5c4)c32)c1 (stereo not drawn) | -0.98 |
| CCN(CC)CC1CCN(c2ncc3ncnc(Nc4ccc(F)c(Cl)c4)c3n2)CC1 | 97 |
| COc1cc2nc(N3CCN(C(=O)C(C)OC)CC3)nc(N)c2cc1OC (stereo not drawn) | 3.88 |
| O=C1C[C@@H](c2ccc(O)cc2)Oc2cc(O)cc(O)c21 | -2.95 |
| CCC(=O)O[C@]1(C(=O)CCl)[C@@H](C)C[C@H]2[C@@H]3CCC4=CC(=O)C=C[C@]4(C)[C@@]3(F)[C@@H](O)C[C@@]21C | -4.27 |
| O=C(O)c1ccc2[nH]cc(CCCCN3CC=C(c4ccccc4)CC3)c2c1 | -12.5 |

| Molecule | result_ITMP [%] |
| --- | --- |
| CN(Cc1ccccc1)C(=O)[C@H](Cc1ccc2ccccc2c1)NC(=O)[C@@H]1CCCN1C(=O)Nc1ccccc1[N+](=O)[O-] | 4.15 |
| CC(=O)Nc1nc(C)c(-c2ccc(Cl)c(S(=O)(=O)NCCO)c2)s1 | -5.63 |
| Cc1cc(O)c(-c2ccc([C@@H](C)CN)cc2)c2c1[nH]c(=O)c1sccc12 | -2.2 |
| CN[C@H](CC(C)C)C(=O)NC1C(=O)N[C@@H](CC(N)=O)C(=O)N[C@H]2C(=O)NC3C(=O)N[C@H](C(=O)N[C@@H](C(=O)O)c4cc(O)cc(O)c4-c4cc3ccc4O)[C@H](O)c3ccc(c(Cl)c3)Oc3cc2cc(c3O[C@@H]2OC(CO)[C@@H](O)[C@H](O)[C@H]2O[C@H]2C[C@](C)(N)[C@H](O)[C@H](C)O2)Oc2ccc(cc2Cl)[C@H]1O (stereo partly drawn) | -7.09 |
| COC(=O)C1=C(C)NC(C)=C(C(=O)O[C@@H]2CCCN(Cc3ccccc3)C2)[C@@H]1c1cccc([N+](=O)[O-])c1 (racemic) | 8.13 |
| OCC[N+]12CN3CN(CN(C3)C1)C2 | -1.77 |
| CCCCN1CCCC1CNC(=O)c1cc(C#N)c2ccccc2c1OC (stereo not drawn) | 6.45 |
| Cc1c(Cl)cccc1S(=O)(=O)Nc1nc(CC(=O)N2CCN(C)CC2)cs1 | -1.74 |
| CN1[C@@H]2CC[C@H]1C[C@@H](OC(=O)N1Cc3ccccc3NC1=O)C2 | -1.56 |
| Cc1nc(NS(=O)(=O)c2ccc(N)cc2)oc1C | -0.96 |
| CCOC(=O)Nc1ccc2c(c1)N(C(=O)CN(CC)CC)c1ccccc1CC2 | 2.01 |
| C[N+]1(C)[C@@H]2C[C@@H](OC(=O)C(O)(c3cccs3)c3cccs3)C[C@H]1[C@@H]1O[C@@H]12 | -2.59 |
| OC[C@H]1O[C@@H](Oc2cc(O)cc(/C=C/c3ccc(O)cc3)c2)[C@H](O)[C@@H](O)[C@@H]1O | -1.94 |
| COc1ccc2nc3c(c(N)c2c1)CCCC3 | 27.8 |
| COc1ccc(C2CNC(=O)C2)cc1OC1CCCC1 (stereo not drawn) | -3.94 |
| O=c1c(O)c(-c2ccc(O)cc2O)oc2cc(O)cc(O)c12 | -3.73 |
| CCCNCC(O)COc1ccccc1C(=O)CCc1ccccc1 (stereo not drawn) | 86.6 |
| O=C(O)/C=C\c1c[nH]cn1 | -4.42 |
| CCCN1C[C@@H](NS(=O)(=O)N(CC)CC)C[C@@H]2Cc3c(O)cccc3C[C@H]21 | 0.96 |
| O=C1c2ccc(Nc3ccc(F)cc3F)cc2CCc2ccc(OC[C@H](O)CO)cc21 | -2.7 |
| O=C(Nc1cccc2c(=O)cc(-c3nn[nH]n3)oc12)c1ccc(OCCCCc2ccccc2)cc1 | 0.93 |
